The supplement of paper PMC10185492
The list shows a part of the results. Values come from read counts of a selection and are noisy.

system: SARS-CoV-2 3CLpro (nsp5); assay: substrate phage enrichment score (protease-eluted vs HEPES control, +1 offset) (ratio); higher = better cleaved substrate; conditions: selection round: 4; protease elution time: 15 min
Protocol: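 Random heptapeptide substrate phage display (M13 pIII fusion, heptapeptide between an N-terminal biotinylated AviTag GLNDIFEAQKIEWHE and pIII; phages immobilised on streptavidin) eluted by cleavage with 50 nM protease in 20 mM HEPES at 37 °C. Selected phages were NGS sequenced, and the enrichment score is (reads in protease sample + 1)/(reads in HEPES blank-selection control + 1).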

| Substance | substrate phage enrichment score |
| --- | --- |
| VNAAHPQ | 0.846 |
| TEDPTPG | 13 |
| LIPETPW | > 34 |
| VLNPAPR | 12 |
| YNTAAHH | 13.5 |
| TTREPRG | 9.33 |
| EPHNLPS | 5.75 |
| RTRGQFG | 14 |
| QRSGACR | 6.31 |
| QLDRSRS | 0.438 |
| SPHLTCV | > 34 |
| SHRHGSR | > 24 |
| VLLQCDW | > 28 |
| EQGDLYR | 3.4 |
| VEDQPGT | 2.4 |
| EVPTQQR | 2.55 |
| GTKPLEV | > 29 |
| VTDFGLR | 1.18 |
| TQKNWPG | > 27 |
| ARHVACG | 4.25 |
| AEATQRL | 5.5 |
| VSSTQYP | > 41 |
| LPRLRLQ | 12.2 |

| Substance | substrate phage enrichment score |
| --- | --- |
| ECRVKLQ | > 77 |
| FSAAAHH | 1.43 |
| LSEAAHH | 4 |
| CNARPVT | 5 |
| RRDSARL | 13.7 |
| SLLQSKQ | 37.5 |
| VDTQTSP | 4.5 |
| RPTTVLR | 13.7 |
| PGNGTLS | 0.964 |
| QCDTQAT | > 21 |
| NRSEQWS | 5.5 |
| SEHAAKY | > 37 |
| LCSTACG | 1.36 |
| YPVNMQV | > 25 |
| PAVHMQG | 7.75 |
| RAERHPL | 10 |
| SRKDARD | > 36 |
| REDPPPK | > 21 |
| KARTRDT | 1.67 |
| GCTPGQL | 17.5 |
| CCTSSLQ | > 24 |
| AYVTTNG | 2.45 |
| ENQTHVY | 0.316 |

| Substance | substrate phage enrichment score |
| --- | --- |
| PKACLTT | 8.33 |
| EAWSSPR | 3.86 |
| SASSKSG | 3.14 |
| PKSASSE | 3.1 |
| NGTRSRQ | 2.45 |
| TALDRAR | 0.538 |
| GCAAAHH | 0.53 |
| SPGQATE | 9.67 |
| TGACPLR | > 120 |
| NAWYEQG | 0.438 |
| ECSSSAD | 0.261 |
| PISGLQQ | 0.706 |
| SIGRSRD | > 31 |
| QRHSCML | 1.17 |
| KGPQMSR | > 64 |
| TGRCHRQ | 6.6 |
| LTSPLTT | 1.44 |
| NCTMRSS | 0.087 |
| VEADTRN | 0.389 |
| PTQFSAG | 2.43 |
| SQASSSG | 3.4 |
| VRHEFFR | > 34 |
| LKCMQKH | > 45 |

| Substance | substrate phage enrichment score |
| --- | --- |
| RDGSEAH | 55 |
| QNRRTPL | 0.333 |
| FCQKEGR | > 24 |
| SWDGVTE | > 50 |
| LELHSQR | 1.42 |
| AFPYGDD | 3.29 |
| GSQPDYY | 4.5 |
| CVLGETT | 4.82 |
| EVWIDET | > 71 |
| KHVRACH | 0.25 |
| NCGRALT | 8 |
| QIHLGGP | > 33 |
| CPLLHRQ | 0.302 |
| HDLFSRS | 10.5 |
| DCRPDPR | 5.07 |
| VGHAMTG | 7 |
| IKCETLQ | > 75 |
| THLQKHS | 0.391 |
| SAAAHNQ | 1.48 |
| CRYWYLG | > 28 |
| ETWPGQG | > 25 |
| AVLQSGR | > 34 |
| RCTQRVK | 4.6 |

| Substance | substrate phage enrichment score |
| --- | --- |
| VGRSTCL | 1.52 |
| ARTKLQA | > 23 |
| RHVKAQA | > 32 |
| LLNMAPD | > 21 |
| SSRRTNG | > 39 |
| CAAAHQN | 0.812 |
| SAAAQQH | 1.67 |
| AYNLSGP | > 90 |
| NAGRSIP | 11.7 |
| SQNLIFQ | > 36 |
| IAIRHSW | 3.4 |
| PEAPHDG | 5.4 |
| GILRDAE | 1.94 |
| NTRLISN | 2.43 |
| LCESPPE | > 36 |
| THAAHHH | 2.89 |
| ACAVGPE | 0.833 |
| VCLQGST | > 30 |
| CIWSNAQ | 2.24 |
| RKQSTLQ | > 109 |
| GTTCRPS | 0.941 |
| SSRAPLR | 46 |
| ARHCAGC | 0.486 |

| Substance | substrate phage enrichment score |
| --- | --- |
| AAGSSIQ | > 21 |
| RDVRTAN | > 31 |
| QTLCCKW | 0.842 |
| TTHDMNK | > 29 |
| PVCGSNT | 11.5 |
| RSEAYET | > 24 |
| PLTGDIR | > 66 |
| PESMQSQ | > 35 |
| SICTYSR | > 21 |
| QQPGDRD | 2.25 |
| AASAHQT | 10.5 |
| KSRCAEG | 0.562 |
| NSMNTPC | 23.7 |
| LSNAGQT | 6.67 |
| PACAASC | > 47 |
| PDEFPQS | 7 |
| LNGNKRD | > 23 |
| NGRSNQR | 2.79 |
| ELSPNRT | > 25 |
| PIPRYAP | 2.11 |
| SLSGRIR | 7.8 |
| TPCTSPK | > 58 |
| KGCCLQA | 40 |

| Substance | substrate phage enrichment score |
| --- | --- |
| MTQAPGP | 2.44 |
| QLDSVLS | > 21 |
| PRALGPV | 0.389 |
| GSAAAQH | 0.906 |
| RCKSEGI | > 26 |
| SVLQGLR | 4 |
| TCGCRPQ | > 33 |
| PSRTWAS | > 22 |
| ENDVIHR | 2.58 |
| KHEHVCS | 1.36 |
| VSRDEIF | 3 |
| RHPNMMA | > 25 |
| ECQIGCP | 0.0526 |
| KSRAAEQ | 20.7 |
| NSSLEKA | 7.33 |
| VQTMETR | 0.923 |
| LGNPVQP | > 22 |
| GRTAETR | > 28 |
| SNQSHVR | 0.471 |
| KTRVMSE | > 38 |
| CRVCMHR | 1.4 |
| ASVILQA | > 34 |
| LVQPNVM | 2.57 |

| Substance | substrate phage enrichment score |
| --- | --- |
| DHHHHHG | 0.625 |
| SDCLTDR | 1.82 |
| YPSESMK | > 73 |
| YKQCRSG | > 23 |
| LSAAAHH | 1.06 |
| VSGQNLG | 6.83 |
| AILQSQT | 16.5 |
| HAATPES | 0.119 |
| ARTEQNT | 0.923 |
| RHLNALQ | > 52 |
| THERTDT | 3.95 |
| LNSGESC | 2.42 |
| DSDQKLI | 3.79 |
| LKCEFSR | > 29 |
| WYAPRQG | 0.278 |
| AIAAPFR | > 43 |
| RAVPASM | > 24 |
| KHGDAYT | > 23 |
| QDFQGGS | 0.444 |
| HPAVLHR | 9.45 |
| RVSAHHH | > 35 |
| RMTSALD | > 21 |
| PEAAHHH | 1.4 |
